# The supplement of paper PMC11417369
# This is one part of the list.
# Tested on: PfSIP2 AP2 domain 1 (GST-tagged)
# Experiment: gcPBM binding intensity (ln(normalized median fluorescence intensity)); higher = stronger DNA binding
# Outline: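 After 1 h on an Agilent 4 × 180k array of primer-extended double-stranded 36-bp intergenic genomic probes and negative controls, bound GST-tagged P. falciparum DNA-binding domains were detected with Alexa488 anti-GST antibody and scanned at 488 nm. The domains had been expressed in E. coli, and binding took place in 1× PBS with 1% milk, 0.2 mg/ml BSA, 0.5% salmon testes DNA and 0.03% Triton X-100. Binding intensity is the highest Masliner-normalised natural-log median intensity across replicate spots of either probe orientation.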
row,Sequence,gcPBM binding intensity (ln)
1,AAAATGTATTCTCTCATGCACACTTTCTTTAAGGGA [CACACA_site2196],7.68
2,TTATTTATATTTTTTTGTACACATATTGTATACATA [XGTACX_site1178],7.22
3,TGTAGATTTTGTAACACACACATATAAATACCTATA [CACACA_site7183],7.03
4,ATCTCTTATATATTCACACACATATATATAATTATA [CACACA_site1502],7.45
5,AAATATAATAACGAACGTACTTATTATAATTTGTAA [XGTACX_site2342],6.83
6,TATTTATATATATGATGTACATAAGGTGTAATGTTA [XGTACX_site5591],7.24
7,TACATGAATATTTATACATGCACACTAAAATAAAGA [TGCATGCA_site611],8.56
8,TATTTACATACAAAATGTACAAAAATATATTTTTTT [XGTACX_site888],7.2
9,ATATATATTTAATGTTGTACATAAAAAATATATAAA [XGTACX_site7774],7
10,AAAGAATACAAAATTGCACACATATTGTGAAAATGT [CACACA_site9327],7.09
11,TATTAACACAATAGCGCACACTTTTAATATTTTATA [CACACA_site1617],7.12
12,ATATAATGTTGTAATAGTACTTTTTTCATATAAATA [XGTACX_site2666],7.1
13,CTTAAATTGAAATGTTGTACAAAGTAAAAACAATGA [XGTACX_site2123],6.85
14,TATTTCCATTCATAATTTTGTAGAATATATAACCGT [CACACA_negctrl_site1531],7.08
15,CGTATATATATATACACACACATATATATATGTAAA [CACACA_site195],7.08
16,AAAAACTTAATATTCACACATATATATATATATATA [CACACA_site5240],9.48
17,AAAAAAAAAAATTACACACATACATATAATAATAAT [CACACA_site2193],6.9
18,TTTACAAAAAATTATACACACACGTACATATAAATA [CACACA_site945],7.12
19,TTTTATTATTAATTTCTTTTTTCTCATCACTTTCAA [XGTACX_negctrl_site117],6.85

row,Sequence,gcPBM binding intensity (ln)
1,ATATATATAAAATATACACACATACTGTTCATTTAA [CACACA_site6149],7.44
2,TAATTTATGAGTAATACACACACTTGTGGATATATT [CACACA_site3790],6.73
3,TACGTTCTAATATATACACACCTGGTATTAATTATG [CACACA_site5260],7.03
4,GAAAAATTTTTATATGTGCACATGTTATATATAATT [GTGCAC_site9742],8.64
5,AAATATTATTTATTTACACACCAATCTTCTTTTCTT [CACACA_site3990],6.96
6,ATATTTATATGGTTTGCACACATAACAACTATGGTT [CACACA_site3631],6.99
7,ATATAACATATCAATTGTACGTATTGATAATATATA [XGTACX_site2504],6.96
8,TTTTGTTTTAATTTTATTTGATTTTATTTGATTTAT [CACACA_negctrl_site692],6.69
9,AGGCACACAAACATATGTACACATATATATATATAT [XGTACX_site4723],9.15
10,TTTATTGAACGTACACATATATATATGTATATATTT [TGCATGCA_negctrl_site141],7.21
11,TTATTTTTTTTATATATATGTATAAATATATATATA [XGTACX_negctrl_site441],8.31
12,GACAAAATGATAGGGACACACAATATCAATGTTTAA [CACACA_site765],6.96
13,TCAATCATCTTATATAGTACACATAAAAGTATTATA [XGTACX_site8513],6.92
14,AAAAAAAAAAATCCAGTGCATATATTTTTTACATAT,9.29
15,ATTACATTAATAAGAGTGCATTATATAAGTTTTATG,8.23
16,CCACTAATAAATATTACACACATATAGATTTATATT [CACACA_site7465],7.1
17,CAAAAGGATATGCACACACACACACGGATATTTATA [CACACA_site7099],7.41
18,TTTTGTTATTAGAGGGTGCTTATAATGAACTCCTAC,8.29
19,TATATTTATTTATATACACACACTTGTATAAAAAAT [CACACA_site2036],7.13

row,Sequence,gcPBM binding intensity (ln)
1,TTAAATATTTTTAGAGTGCATGTAATAAAAATATAA [GTGCAC_site9414],10.2
2,TATATCAAAATACATACACACATTTGTATATACATT [CACACA_site2696],7.02
3,TATATACAGAAACACACACACACATATATATATATA [CACACA_site2247],9.38
4,TATCTATATGGGAACACACTCATAAATATATATCTA [CACACA_site4815],7.04
5,AAAATAAATAAATACACACACACGAATATATATATA [CACACA_site1683],8.88
6,TTTTAAAAATAATAAATAAATAAAATTGAAGTTCCA [CACACA_negctrl_site305],6.78
7,AAAATTTTTAAATATTGTACTATTTATTTTTAGCAT [XGTACX_site6190],6.93
8,TATATATATATATTTACACACATTCATATAAATTCA [CACACA_site3532],9.11
9,GCCTACAGACTTAGTAGTACATGAGAAGATATATAT [XGTACX_site2269],7.09
10,AATATGAACGGACACACACACACAAAAAAAAAAAAA [CACACA_site5154],7.03
11,TATTATTTTTCCTAATGTACAAAATATATATTTTTA [XGTACX_site2727],7.33
12,TTTGAATATATAAATATGCACACTTCTATTATAAAT [CACACA_site3359],9.99
13,TTCTTATATAAATACACACACAAAATATCTACAATG [CACACA_site4568],7.12
14,AAAAAAATAAAAAGGAACGTCTATAGTTAATTTATT [CACACA_negctrl_site919],6.85
15,AATCGATTGGATAATATTTTTTCTCTTAATTTTTTG [GTGCAC_negctrl_site165],6.42
16,TATATTAGAAGAAATTCACACATTCATGTAATCTTA [CACACA_site4706],6.49
17,ATGTTGCACAATGTTACACACACAATATATATCGTT [CACACA_site4833],7.82
18,TTTTTTTTGTTGTTGTTGCACTTGATAGGAATGGCT [GTGCAC_site9701],8.35
19,AAAAAAAACAGACACACACACAAATACATACACAAA [CACACA_site705],7.07
